Data on 57 molecules can be found in article PMC4336329 (PLoS ONE, 2015).

Among all 310,000 compounds or so, about 14,000 (4.5%) showed an effect of 50% or more. The effect is printed as a negative number. The list shows a part of the results.
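Also: peak tail current of the secondary pulse compared with the same well before compound.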

Chain of human ether-à-go-go-related gene (hERG) potassium channel (Q12809 whole entry, looked up): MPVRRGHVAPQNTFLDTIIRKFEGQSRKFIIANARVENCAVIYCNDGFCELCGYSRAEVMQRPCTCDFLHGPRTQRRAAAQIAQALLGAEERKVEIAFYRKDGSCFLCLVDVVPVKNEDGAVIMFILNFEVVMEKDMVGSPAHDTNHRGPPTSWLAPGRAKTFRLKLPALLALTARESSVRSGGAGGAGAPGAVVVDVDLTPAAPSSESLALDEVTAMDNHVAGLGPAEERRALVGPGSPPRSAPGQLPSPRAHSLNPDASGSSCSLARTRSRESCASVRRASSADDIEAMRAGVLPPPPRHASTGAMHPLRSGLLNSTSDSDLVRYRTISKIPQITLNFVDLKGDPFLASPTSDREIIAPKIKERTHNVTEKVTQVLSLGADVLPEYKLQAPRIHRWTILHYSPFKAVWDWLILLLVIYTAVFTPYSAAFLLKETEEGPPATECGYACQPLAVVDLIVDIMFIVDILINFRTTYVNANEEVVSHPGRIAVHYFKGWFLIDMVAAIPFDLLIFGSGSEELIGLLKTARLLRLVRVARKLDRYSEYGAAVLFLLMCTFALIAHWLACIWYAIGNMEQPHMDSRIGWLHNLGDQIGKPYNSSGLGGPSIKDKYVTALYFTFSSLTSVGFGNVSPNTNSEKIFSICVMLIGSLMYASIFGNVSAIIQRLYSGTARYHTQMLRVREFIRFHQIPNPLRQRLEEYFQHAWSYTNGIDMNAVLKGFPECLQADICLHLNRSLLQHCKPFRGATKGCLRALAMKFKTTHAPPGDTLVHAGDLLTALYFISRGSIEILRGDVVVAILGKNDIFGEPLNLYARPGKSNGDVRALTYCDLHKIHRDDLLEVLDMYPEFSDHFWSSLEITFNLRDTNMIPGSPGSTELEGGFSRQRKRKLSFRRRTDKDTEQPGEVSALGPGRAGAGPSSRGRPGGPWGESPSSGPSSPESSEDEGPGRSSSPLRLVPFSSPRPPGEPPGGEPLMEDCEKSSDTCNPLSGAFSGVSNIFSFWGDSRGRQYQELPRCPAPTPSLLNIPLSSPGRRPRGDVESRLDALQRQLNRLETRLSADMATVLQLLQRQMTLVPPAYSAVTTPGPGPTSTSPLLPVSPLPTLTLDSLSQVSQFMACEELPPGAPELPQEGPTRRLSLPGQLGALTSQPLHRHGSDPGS

The experiment concerns the target human ether-à-go-go-related gene (hERG) potassium channel (human, UniProt Q12809). The experiment in a line: primary screen, population patch clamp on CHO cells stably expressing hERG.
Turning to `O=C(NC1CCCCC1)c1ccc(CS(=O)Cc2ccc(Cl)cc2)o1` (stereo not drawn), the “hERG current change (%, negative = inhibition) at 10uM” value was -21.7%.
The value for `COCCOC(=O)c1c(C)oc2ccc(NS(=O)(=O)c3ccc(F)cc3)cc12` was -26.8%; that for `COc1ccc(N2CCN(C(=O)CNC(=O)Cn3c(C)cc4ccccc4c3=O)CC2)cc1` was -8.98%; that for `CCOc1ccccc1NC(=O)N1CCC(NC(=O)c2ccccc2C)CC1` was -1.06%.
To `COCCn1nnnc1C(c1cc2cc(C)cc(C)c2[nH]c1=O)N1CCN(c2ccccc2F)CC1` (stereo not drawn) belongs -23.1%; to `CC(OC(=O)c1ccc(NC(=O)CC#N)cc1)C(=O)Nc1ccc(Oc2ccccc2)cc1` (stereo not drawn), 14.6%; to `COc1ccccc1NC(=O)N1c2ccccc2NC(=O)CC1C` (stereo not drawn), 7.25%.
With `N#CCCN(Cc1ccccc1)C(=O)c1cccs1`, the “hERG current change (%, negative = inhibition) at 10uM” value is reported as 3.74%.
Regarding `CS(=O)(=O)c1ccc(Cl)c(NC(=O)CN2C(=O)C3CCCCC3C2=O)c1` (stereo not drawn), the “hERG current change (%, negative = inhibition) at 10uM” value is on record as 10.7%.
The value for `COc1ccc(S(=O)(=O)/C(C#N)=C/Nc2cccc(F)c2)cc1` was 17.2%; that for `COC(=O)c1nn(-c2ccccc2)c(Cl)c1/C=N/OCc1c(Cl)cccc1Cl` was -27.8%.
`CNc1nc2c(Cl)cc(Cl)cc2s1`: the “hERG current change (%, negative = inhibition) at 10uM” value is 2.33%.
On to `O=C(NCCN1CCOCC1)c1ccncc1`, for which the “hERG current change (%, negative = inhibition) at 10uM” value is on record as 6.71%.
The value for `CCN(CC)Cc1c(C(=O)N/N=C/c2cccc(OCc3ccc(F)cc3)c2)nnn1-c1nonc1N` was -2.61%; that for `CN(C(=O)COC(=O)CNC(=O)c1ccccc1Cl)c1ccccc1` was 18.3%; that for `Cc1ccc(-n2c(-c3ccncc3)nnc2-c2cccs2)cc1` was 1.58%.
To `O=C(O)COCC(=O)Nc1ccc(OCCc2ccccc2)cc1` belongs 11.8%; to `OCCN1CCN(Cc2cccc(Oc3ccc(Cl)cc3)c2)CC1`, -21.9%; to `CCOC(=O)/C(C#N)=C\N(C)C`, 26.9%.
The value for `CCOC(=O)c1c(C)[nH]c(C2=NNC(=NC3CC3)SC2)c1C` was -30.1%; that for `COc1ccccc1Oc1ncnc2sccc12` was 13.3%.
With `O=C(CSc1ncnc2ccccc12)Nc1ccc2c(c1)OCO2`, the “hERG current change (%, negative = inhibition) at 10uM” value is on record as -7.32%.
To `CCOC(=O)c1cc(-c2ccccc2)sc1NC(=O)c1ccc(OC)cc1` belongs 16.7%; to `NS(=O)(=O)c1ccc2nc(NC(=O)Nc3ccccc3F)sc2c1`, 11.6%; to `CCS(=O)c1ccccc1C(=O)OC(C)C(=O)Nc1ccc(S(=O)(=O)N2CCCC2)cc1` (stereo not drawn), 7.31%.
To `Cc1ccc(-n2c(C)c([N+](=O)[O-])c3ccc(O)c(CN(C)C)c32)cc1` belongs -23.6%.
To `COCCNC(=O)C(c1ccc(C)o1)N(C(=O)C(=O)NC1CCCCC1)c1ccc(F)cc1` (stereo not drawn) belongs -27.8%; to `Cc1nc2ccc(Br)cn2c1C(=O)N/N=C\c1ccccc1Cl`, 22.8%.
For the molecule `Cn1c(N)c(C(=O)c2cc(-c3ccncc3)nc3ccccc23)c(=O)n(C)c1=O`, the “hERG current change (%, negative = inhibition) at 10uM” value amounted to 0.566%.
To `Cc1ccc(NC(=S)NNC(=O)c2ccccc2OC(F)F)cc1` belongs -0.615%.
Turning to `CCCc1nc(SCC(=O)NC2CCCC2)c2ccccc2n1`, the “hERG current change (%, negative = inhibition) at 10uM” value was -3.29%.
The value for `COc1ccccc1CC(=O)Nc1ccc(S(=O)(=O)N2CC(C)CC(C)C2)cc1` (stereo not drawn) was -7.25%; that for `O=C(CCNS(=O)(=O)c1ccccc1F)N1CCN(Cc2ccccc2)CC1` was 0.133%.
The value for `O=C(c1cnn(-c2nc3ccccc3s2)c1)c1ccccc1O` was 7.64%; that for `COc1ccc(Cc2nc3ccc(C(=O)N4CCCN(C=O)CC4)cc3o2)cc1` was 5.54%; that for `CCOC(=O)c1cc(NC(=O)c2cnccn2)cc(C(=O)OCC)c1` was -5.78%.
With `COC(=O)C(C)n1cnc2c(nnn2-c2ccccc2)c1=O` (stereo not drawn), the “hERG current change (%, negative = inhibition) at 10uM” value was -3.87%.
As to `Cc1nc(N)sc1N=Nc1c(C)n(C)n(-c2ccccc2)c1=O`, the “hERG current change (%, negative = inhibition) at 10uM” value is given as -20%.
The value for `Cl.O=C(NC(=S)NC1CCN(Cc2ccccc2)CC1)c1ccc(F)cc1` was -72.3%; that for `c1ccn2cc(C34CC5CC(CC(C5)C3)C4)nc2c1` was -28.8%; that for `COc1cccc(OCCOc2ccccc2OC(C)C)c1` was 6.55%.
To `CCN1CCN(C(=O)C(=O)c2cn(CC(=O)N(CC)CC)c3ccccc23)CC1` belongs 14.2%; to `CCc1c(C)sc(NC(=S)N2CCN(S(C)(=O)=O)CC2)c1C(=O)OC`, -5.72%; to `COCCNc1nnc(SCC(=O)Nc2sc3c(c2C(=O)c2ccccc2)CCCC3)s1`, -4.2%.
To `COC(=O)C(C(=O)OC)c1ccc(N)cc1` belongs -0.56%; to `CCOc1ccc2nc(NCCCO)[nH]c2c1`, 4.96%.
Turning to `CC(=O)c1c(C(C)=O)c(C)n(NC(=O)c2ccc(Cl)cc2)c1C`, the “hERG current change (%, negative = inhibition) at 10uM” value was found to be 12.5%.
The value for `Cc1ccccc1CN(c1ccc(C(=O)NCC2CCCO2)cc1)S(C)(=O)=O` (stereo not drawn) was 3.91%.
The value for `Cc1ccc(Oc2nc(-c3cccnc3)nc3ccccc23)c([N+](=O)[O-])n1` was 11.9%; that for `O=c1oc2ccccc2n1CCCOc1ccccc1` was -27.5%; that for `Cc1ccc2c(c1)N(C(=O)CCC(=O)Nc1ccccc1Br)CC(C)O2` (stereo not drawn) was -6.56%.
Turning to `CC(C)OCCCNC(=O)CN1C(=O)/C(=C/c2ccccc2F)Oc2ccccc21`, the “hERG current change (%, negative = inhibition) at 10uM” value turned out to be 10.8%.
The value for `CCOC(=O)N1CCN(C(=O)CCCCCn2c(=S)[nH]c3ccsc3c2=O)CC1` was -0.374%; that for `COc1cccc2cc(C(=O)N(C)C)c(=O)oc12` was 14%.
In the case of `COc1ccc(C(=O)Nc2ccc(NC(=O)CSc3nnc(-c4ccncc4)n3C)cc2)cc1`, the “hERG current change (%, negative = inhibition) at 10uM” value is reported as -7.57%.
To `CC1CCN(C(=O)CCc2ccc(S(=O)(=O)NC(C)C)cc2)CC1` belongs -10.7%; to `CCN(CC(=O)NCc1cccs1)S(=O)(=O)c1ccc(F)c(F)c1F`, -19.6%.
